The whole screen tested about 130,000 compounds, of which about 1,900 (1.5%) were called active. This list was built around the results that the source calls inconclusive (neither active nor inactive); the mix of calls is not that of the screen. Calls follow the shape of the dose curve; as a rule, active = well fitted cell-killing curve with a large enough effect; inconclusive = small, poorly fitted or top-dose-only effect; inactive = no such curve, though single readings can be large or run the other way. Where the call is inconclusive, the potency comes from a doubtful curve fit. More than one record can exist for a structure, and the calls need not agree.
Assay: qHTS Screen for Compounds that Selectively Target Cancer Cells with p53 Mutations: Cytotoxicity of p53ts Cells at the Nonpermissive Temperature; also: nearly all actives have a fitted effect of over 55% in size
Conditions: H1299-p53A138V viability at 39C, ATP luminescence, 24 h; activity change, negative = cell killing: at 46.1 µM (top of the series)
% is scaled to controls: 0 for no effect and ±100 for the full control effect; potency is read from the fitted curve at half-maximal effect; tags tell the direction and shape of the fitted curve.

| Structure (SMILES) | Potency | activity change, negative = cell killing |
| --- | --- | --- |
| CCc1ccccc1N1CC(c2nc3ccccc3n2CCCCOc2ccccc2OC)CC1=O (centres undefined) | inconclusive: 31.6 µM [cytotoxic, single point] |  |
| CC1(C)C=Cc2cc3ccc(=O)oc3cc2O1 | inconclusive: 31.6 µM [cytotoxic, single point] |  |
| Cc1ccc(-c2noc(CCC(=O)NCCCN3CCN(c4cccc(Cl)c4)CC3)n2)cc1 | inconclusive: 31.6 µM [cytotoxic, single point] |  |
| COc1ccc(NC(=O)Nc2nnc(SCC(=O)Nc3cccc(C)c3C)s2)cc1 | inconclusive: 10 µM [cytotoxic, partial curve] |  |
| CCn1cnc2c(=O)oc3ccc(S(=O)(=O)N4CCN(c5cc(C)ccc5C)CC4)cc3c21 | inconclusive: 25.1 µM [cytotoxic, single point] |  |
| O=C(Cc1cc(=O)[nH]c(=O)[nH]1)N1CCC(Cc2ccccc2)CC1 | inconclusive: 12.6 µM [cytotoxic, partial curve] |  |
| COc1ccccc1NC(=O)C1=C(C)NC(=O)NC1c1ccc(C)cc1 (centres undefined) | inconclusive: 15.8 µM [cytotoxic, single point] |  |
| Cc1cccc(C)c1OCC(=O)Nc1cccc(NC(=O)c2ccco2)c1 | inconclusive: 12.6 µM [cytotoxic, partial curve, poor fit] |  |
| CN(C)CCCN1c2ccccc2Sc2ccc(Cl)cc21 | active: 10 µM |  |
| Cc1cc(C)cc(OC(=O)c2cc(-c3ccc4c(c3)OCCO4)on2)c1 | active: 12.6 µM |  |
| COc1cc(N)c(Cl)cc1C(=O)N[C@H]1CCN(CCCOc2ccc(F)cc2)C[C@@H]1OC | inactive |  |
| Cc1ccc(C)c(Cn2c(=O)c3c(nc4n3CCN4c3ccc(F)cc3)n(C)c2=O)c1 | inconclusive: 4.47 µM [cytotoxic, partial curve, poor fit] |  |
| Cc1ccc(NC(=O)C(=O)NCC(c2cccnc2)N2CCOCC2)cc1C (centres undefined) | inconclusive: 31.6 µM [cytotoxic, single point] |  |
| COc1ccc(-c2cnnn2-c2ccc(NC(=O)c3ccco3)cc2)cc1OC | inactive |  |
| CC12CCC3c4ccc(OCc5ccccc5)cc4CCC3C1CC(O)C2O (centres undefined) |  | inconclusive: -30.2% [cytotoxic] |
| CCOC(=O)Cc1ccc(NC(=O)n2ncc3c(C)cccc32)cc1 | inconclusive: 10 µM [cytotoxic, partial curve] |  |
| Clc1ccccc1OCc1nc(-c2ccccn2)no1 | inconclusive: 12.6 µM [cytotoxic, partial curve] |  |
| CCCS(=O)(=O)c1ncc(Cl)c(C(=O)N(Cc2ccccc2)Cc2ccco2)n1 | active: 3.16 µM |  |
| CCS(=O)(=O)n1nc(-c2ccc(OC)cc2)nc1SC | inconclusive: 10 µM [cytotoxic, partial curve] |  |
| COc1ccc(C(=O)Nc2cccc3c2C(=O)NC3=O)cc1S(=O)(=O)N1CCOCC1 | inactive |  |
| Cc1cc(NC(=O)N2CC=C(c3c[nH]c4ccccc34)CC2)ccc1Br | inactive |  |
| Cn1c(=O)c2c(nc(SCC(=O)Nc3ccc(OC(F)(F)F)cc3)n2Cc2cccc(C(F)(F)F)c2)n(C)c1=O | inconclusive: 12.6 µM [cytotoxic, partial curve] |  |

| Structure (SMILES) | Potency | activity change, negative = cell killing |
| --- | --- | --- |
| COC(=O)C1=C(C)N(Cc2ccccc2)[C@]23O[C@](C(=O)OC)(C(=O)N2C1c1ccccc1)C1CCOC(=O)C13 (some centres undefined) |  | inactive: 2.29% [at 9.22 µM] |
| CCc1ccc(S(=O)(=O)c2nnn3c2nc(NCCc2ccccc2)c2sccc23)cc1 | inconclusive: 1.26 µM [cytotoxic, full curve, poor fit] |  |
| COc1cccc(-c2nc(SCC(=O)Nc3ccc4c(c3)OCO4)c(-c3ccccc3)[nH]2)c1 | inconclusive: 31.6 µM [cytotoxic, single point] |  |
| CC(=O)Nc1ccc(S(=O)(=O)Nc2cccc(-c3ccc(N4CCC(C)CC4)nn3)c2)cc1 | active: 3.55 µM |  |
| COc1ccc2nc(NC(=O)CSc3nc(SC)ns3)sc2c1 | inconclusive: 35.5 µM [cytotoxic, single point] |  |
| CCCc1cc(N2CCN(c3cc(Cl)ccc3C)CC2)n2cnnc2n1 | inconclusive: 31.6 µM [cytotoxic, single point] |  |
| O=c1c2sc(-c3ccccc3)cc2nc2n1CCC2 | inconclusive: 10 µM [cytotoxic, partial curve] |  |
| Cc1cc(OCC(=O)NCC2(N3CCN(C)CC3)CCCCC2)cc(C)c1Cl | inconclusive: 31.6 µM [cytotoxic, single point] |  |
| Cc1ccc(NC2=CC(c3ccccc3F)N(c3ccc(C)cc3)C2=O)cc1 (centres undefined) | inactive |  |
| CC(C)CN1C(=O)c2ccc(C(=O)Nc3nccs3)cc2C1=O | inactive |  |
| CCc1nnc(NC(=O)CCC(=O)N2CCN(Cc3ccccc3)CC2)s1 | inconclusive: 12.6 µM [cytotoxic, partial curve] |  |
| COc1ccc(CNC(=O)c2cc3cc(C)ccc3n2C)cc1 | inconclusive: 0.316 µM [cytotoxic, full curve, poor fit] |  |
| Cc1ccccc1-c1ncnn1-c1sc2c(c1C#N)CCCCC2 | active: 12.6 µM |  |
| COCc1cc(CN2CCCC2)c(O)c2ncccc12 | inconclusive: 12.6 µM [cytotoxic, partial curve] |  |
| CCCCNC(=O)C(CC)Sc1nnc(-c2cccc(F)c2)c(-c2cccc(F)c2)n1 (centres undefined) | inactive |  |
| O=C(Nc1cc(F)ccc1F)C1CCN(c2nc3ccccc3n3cccc23)CC1 | inconclusive: 1.58 µM [cytotoxic, full curve, poor fit] |  |
| O=C(/C=C/c1ccc(Br)cc1)N1CCN(c2cccc(C(F)(F)F)c2)CC1 | inconclusive: 6.31 µM [cytotoxic, partial curve, poor fit] |  |
| OC(c1ccc2c(c1)OCO2)c1nccc2ccccc12 (centres undefined) | inactive |  |
| O=C1CC(c2nc3ccccc3n2CCCCOc2ccccc2)CN1c1ccccc1Cl (centres undefined) | inconclusive: 31.6 µM [cytotoxic, single point] |  |
| Cc1ccc(Nc2nc(N)nc(CSc3nncn3C)n2)cc1 | active: 12.6 µM |  |
| Cc1ccc(SCc2cn3c(C)csc3n2)cc1 | active: 12.6 µM |  |
| CCOC(=O)CNc1c(-c2ccc(O)cc2)nc2ccc(Cl)cn12 | inconclusive: 12.6 µM [cytotoxic, partial curve] |  |

Reference: PubChem BioAssay AID902 (National Center for Advancing Translational Sciences (NCATS), 2007)
